{
  "source": "paper PMC4336329",
  "about": "(PLoS ONE, 2015)",
  "note": "Screen size: about 310,000 compounds; about 14,000 (4.5%) showed an effect of 50% or more. Effects have a minus sign here. The list shows a part of the results.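 Further: peak tail current of the secondary pulse compared with the same well before compound.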",
  "data": [
    {"target": "human ether-à-go-go-related gene (hERG) potassium channel (human, UniProt Q12809)", "sequence (Q12809 whole entry, looked up)": "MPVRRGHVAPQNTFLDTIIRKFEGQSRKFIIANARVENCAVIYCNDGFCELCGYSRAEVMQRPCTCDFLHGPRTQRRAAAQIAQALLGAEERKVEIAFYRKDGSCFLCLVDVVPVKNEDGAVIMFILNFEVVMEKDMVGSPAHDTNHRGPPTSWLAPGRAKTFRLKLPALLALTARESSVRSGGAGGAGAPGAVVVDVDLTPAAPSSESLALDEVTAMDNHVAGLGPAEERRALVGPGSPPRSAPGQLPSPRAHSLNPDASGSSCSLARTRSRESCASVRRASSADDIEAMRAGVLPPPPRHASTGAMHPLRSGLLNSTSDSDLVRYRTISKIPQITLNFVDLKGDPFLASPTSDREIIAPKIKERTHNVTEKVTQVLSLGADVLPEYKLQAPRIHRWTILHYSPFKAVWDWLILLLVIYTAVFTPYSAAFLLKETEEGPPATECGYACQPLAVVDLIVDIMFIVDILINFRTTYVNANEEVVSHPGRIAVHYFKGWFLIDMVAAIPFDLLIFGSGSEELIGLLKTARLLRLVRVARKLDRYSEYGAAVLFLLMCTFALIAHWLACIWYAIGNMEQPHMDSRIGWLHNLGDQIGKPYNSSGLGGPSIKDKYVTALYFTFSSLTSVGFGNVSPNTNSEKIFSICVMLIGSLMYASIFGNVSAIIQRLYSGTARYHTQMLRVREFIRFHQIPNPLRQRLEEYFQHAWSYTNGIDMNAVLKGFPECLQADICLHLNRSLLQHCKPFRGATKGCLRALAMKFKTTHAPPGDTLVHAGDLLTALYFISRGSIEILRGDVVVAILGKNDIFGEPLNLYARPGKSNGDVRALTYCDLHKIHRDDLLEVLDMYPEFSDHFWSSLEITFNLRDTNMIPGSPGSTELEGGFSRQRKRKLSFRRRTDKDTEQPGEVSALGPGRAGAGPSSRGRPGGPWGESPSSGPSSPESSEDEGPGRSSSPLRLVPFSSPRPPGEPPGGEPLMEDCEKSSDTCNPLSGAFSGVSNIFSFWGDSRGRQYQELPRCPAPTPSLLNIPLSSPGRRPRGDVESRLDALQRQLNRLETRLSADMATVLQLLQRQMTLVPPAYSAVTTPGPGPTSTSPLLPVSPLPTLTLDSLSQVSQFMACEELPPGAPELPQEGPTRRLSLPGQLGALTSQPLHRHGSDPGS", "experiment": "primary screen, population patch clamp on CHO cells stably expressing hERG", "units": {"hERG current change (%, negative = inhibition) at 10uM": "%"}, "values": [
      {"smiles": "CCC(=O)N1N=C(c2cccs2)CC1c1ccco1", "note": "(stereo not drawn)", "hERG current change (%, negative = inhibition) at 10uM": 4.53},
      {"smiles": "CN1CCC(N(C)C(=O)/C(C#N)=C/c2ccccc2)CC1.Cl", "hERG current change (%, negative = inhibition) at 10uM": 15.4},
      {"smiles": "O=C(NCCN1CCOCC1)C1CC(=O)N(c2ccc(Cl)cc2)C1", "note": "(stereo not drawn)", "hERG current change (%, negative = inhibition) at 10uM": 9.18},
      {"smiles": "S=C(NC12CC3CC(CC(C3)C1)C2)N1CCCC1", "hERG current change (%, negative = inhibition) at 10uM": 9.45},
      {"smiles": "CCCOc1ccc(-c2nc(-c3ccc(N)cc3)cs2)cc1", "hERG current change (%, negative = inhibition) at 10uM": 8.53},
      {"smiles": "CN(CCOc1ccccc1)C(=O)c1ccc(N2CCCC2)c([N+](=O)[O-])c1", "hERG current change (%, negative = inhibition) at 10uM": -27.5},
      {"smiles": "C=CCc1cc(C=O)cc(OCC)c1O", "hERG current change (%, negative = inhibition) at 10uM": 14},
      {"smiles": "O=C(Nc1nccs1)c1ccc(S(=O)(=O)NCC2CCCCC2)cc1", "hERG current change (%, negative = inhibition) at 10uM": -6.69},
      {"smiles": "CC(Oc1ccc(F)cc1)C(=O)Nc1ccccc1C(=O)N1CCCCC1", "note": "(stereo not drawn)", "hERG current change (%, negative = inhibition) at 10uM": -15.1},
      {"smiles": "Cc1ccc(N2C(=O)CC(=O)NC2=O)cc1Cl", "hERG current change (%, negative = inhibition) at 10uM": 13.9},
      {"smiles": "C=CCOc1c(Cl)cc(C(=S)N2CCCC2)cc1OCC", "hERG current change (%, negative = inhibition) at 10uM": 18.6},
      {"smiles": "Cc1ccc(NC(=O)CCNS(=O)(=O)c2ccc3[nH]c(=O)oc3c2)c(C)c1", "hERG current change (%, negative = inhibition) at 10uM": 14.8},
      {"smiles": "COc1ccc(C2C(C(C)=O)=C(O)C(=O)N2CCc2ccccc2)c(OC)c1", "note": "(stereo not drawn)", "hERG current change (%, negative = inhibition) at 10uM": 6.42},
      {"smiles": "N#CCC(=O)Nc1cc(C(F)(F)F)ccc1N1CCOCC1", "hERG current change (%, negative = inhibition) at 10uM": 6.02},
      {"smiles": "CCC(C(=O)O/N=C(\\N)c1ccc(C)cc1)c1ccccc1", "note": "(stereo not drawn)", "hERG current change (%, negative = inhibition) at 10uM": -0.704},
      {"smiles": "COC(=O)CC1C(=O)NCCN1Cc1cn(-c2ccc(C)cc2)nc1-c1cccc(C)c1", "note": "(stereo not drawn)", "hERG current change (%, negative = inhibition) at 10uM": -9.55},
      {"smiles": "COc1ccc(-c2c(C)n([O-])c3c([n+]2=O)CCCCC3)cc1OC", "hERG current change (%, negative = inhibition) at 10uM": 14},
      {"smiles": "O=C1NCCCCC1NS(=O)(=O)c1ccc(F)c(F)c1", "note": "(stereo not drawn)", "hERG current change (%, negative = inhibition) at 10uM": 4.76},
      {"smiles": "CCOC(=O)N1CCN(S(=O)(=O)c2ccc(C)c([N+](=O)[O-])c2)CC1", "hERG current change (%, negative = inhibition) at 10uM": -13.4},
      {"smiles": "Cc1nn2c(Nc3ccccc3)c3c(nc2c1-c1ccccc1)CCC3", "hERG current change (%, negative = inhibition) at 10uM": 14.1},
      {"smiles": "O=C(NC(=S)Nc1nc(-c2ccc(Br)cc2)cs1)c1ccco1", "hERG current change (%, negative = inhibition) at 10uM": 21.8},
      {"smiles": "CCOC(=O)c1c(C)oc2ccc(OCC(=O)C(C)(C)C)cc12", "hERG current change (%, negative = inhibition) at 10uM": 12.2},
      {"smiles": "CCOc1ccc(C(=O)Nc2cccc3ncccc23)cc1Br", "hERG current change (%, negative = inhibition) at 10uM": 17.4},
      {"smiles": "CCOc1ccc(Br)cc1S(=O)(=O)N1CCCN(C)CC1", "hERG current change (%, negative = inhibition) at 10uM": -4.35},
      {"smiles": "CN(C(=O)COC(=O)CNC(=O)c1cccs1)c1c(N)n(Cc2ccccc2)c(=O)[nH]c1=O", "hERG current change (%, negative = inhibition) at 10uM": 1.05},
      {"smiles": "CCOc1ccccc1Nc1nc(N2CCCC2)nc(N2CCOCC2)n1", "hERG current change (%, negative = inhibition) at 10uM": -2.63},
      {"smiles": "CC1CN(c2ncnc3c2c(-c2ccccc2)cn3-c2ccc(F)cc2)CC(C)O1", "note": "(stereo not drawn)", "hERG current change (%, negative = inhibition) at 10uM": 12},
      {"smiles": "COC(=O)c1ccc(NCCc2csc(-c3ccc(C)cc3)n2)c([N+](=O)[O-])c1", "hERG current change (%, negative = inhibition) at 10uM": 1.66},
      {"smiles": "CCCOc1cc(C)c(S(=O)(=O)N2CCOCC2)cc1C", "hERG current change (%, negative = inhibition) at 10uM": 0.0182},
      {"smiles": "COc1cc(/C=C2\\C(=O)NN(c3ccccc3)C2=O)cc([N+](=O)[O-])c1O", "hERG current change (%, negative = inhibition) at 10uM": 22},
      {"smiles": "CN1CCN(NC(=O)Nc2ccc([N+](=O)[O-])cc2)CC1", "hERG current change (%, negative = inhibition) at 10uM": -18.8},
      {"smiles": "CCOC(=O)[C@@H]1[C@H]2COc3ccccc3[C@H]2N2C(=O)N(c3ccccc3)C(=O)[C@]12C", "hERG current change (%, negative = inhibition) at 10uM": -9.02},
      {"smiles": "COc1cnc(-c2ccccc2)nc1Oc1cccc(C)c1", "hERG current change (%, negative = inhibition) at 10uM": -3.84},
      {"smiles": "CCn1nnc(NC(=O)COc2ccc([N+](=O)[O-])cc2)n1", "hERG current change (%, negative = inhibition) at 10uM": -13},
      {"smiles": "COC(=O)c1cc2ccsc2n1CC(=O)Nc1cc(Cl)ccc1OC", "hERG current change (%, negative = inhibition) at 10uM": 6.58},
      {"smiles": "COc1ccc(CCNC(=O)c2cc(-c3ccc(C)c(C)c3O)n[nH]2)cc1OC", "hERG current change (%, negative = inhibition) at 10uM": 14.7},
      {"smiles": "C=CCOC(=O)C1=C(C)NC(SC)=C(C#N)C1c1ccc(OCC)cc1", "note": "(stereo not drawn)", "hERG current change (%, negative = inhibition) at 10uM": -12.6},
      {"smiles": "O=C(CCc1nc2ccccc2c(=O)[nH]1)Nc1nnc(SCc2ccc(F)cc2)s1", "hERG current change (%, negative = inhibition) at 10uM": 7.47},
      {"smiles": "CC(=O)c1c(C)[nH]c(C(=O)N2CCCC(C)C2)c1C", "note": "(stereo not drawn)", "hERG current change (%, negative = inhibition) at 10uM": 9.47},
      {"smiles": "CCC(C)(c1nnnn1-c1c(C)cccc1C)N(N=O)c1ccccc1Cl", "note": "(stereo not drawn)", "hERG current change (%, negative = inhibition) at 10uM": 11.9},
      {"smiles": "Cc1cccc(-c2nsc(SCC(=O)N3CCCC3)n2)c1", "hERG current change (%, negative = inhibition) at 10uM": -3.24},
      {"smiles": "CC(C)c1cccc(C(C)C)c1NC(=O)CNCc1ccccc1F.O=C(O)C(=O)O", "hERG current change (%, negative = inhibition) at 10uM": -18.9},
      {"smiles": "O=C(NC(Cc1c[nH]c2ccccc12)C(=O)N/N=C/c1cccnc1)c1cccs1", "note": "(stereo not drawn)", "hERG current change (%, negative = inhibition) at 10uM": -7.7},
      {"smiles": "CSc1ccc(Cl)c(C(=O)N(C)CC(=O)Nc2ccc(N3CCOCC3)cc2)c1", "hERG current change (%, negative = inhibition) at 10uM": -0.854},
      {"smiles": "O=C(NCc1ccc(F)cc1)c1cc2ccccc2o1", "hERG current change (%, negative = inhibition) at 10uM": -13.4},
      {"smiles": "CC(CNC1CCCCC1)OC(=O)c1ccccc1.Cl", "note": "(stereo not drawn)", "hERG current change (%, negative = inhibition) at 10uM": -8.12},
      {"smiles": "O=C(c1ccco1)N1CCN(C(=O)c2cc(Cl)nc3ccccc23)CC1", "hERG current change (%, negative = inhibition) at 10uM": -35.2},
      {"smiles": "Nn1c(SCC(=O)Nc2ccc(F)cc2F)nnc1-c1cccnc1", "hERG current change (%, negative = inhibition) at 10uM": 17.8},
      {"smiles": "NNC(=O)c1csc(-c2ccc(C(F)(F)F)cc2Cl)n1", "hERG current change (%, negative = inhibition) at 10uM": -19.2},
      {"smiles": "CC(OC(=O)CNS(=O)(=O)c1ccc(C#N)cc1)C(=O)Nc1cccc(C#N)c1", "note": "(stereo not drawn)", "hERG current change (%, negative = inhibition) at 10uM": -27.7},
      {"smiles": "Cc1ccc(C(=O)N2CCCC(Nc3ccc(F)cc3)C2)cc1C", "note": "(stereo not drawn)", "hERG current change (%, negative = inhibition) at 10uM": 0.463},
      {"smiles": "COc1cccc(CN(C)CC(=O)Nc2cc3oc4ccccc4c3cc2OC)c1", "hERG current change (%, negative = inhibition) at 10uM": 4.87},
      {"smiles": "CCCCN1C(=O)Nc2ccccc2S1(=O)=O", "hERG current change (%, negative = inhibition) at 10uM": -36.6},
      {"smiles": "Cc1ccc(-n2c(C)cc(/C=N/NC(=O)c3ccncc3)c2C)cc1C", "hERG current change (%, negative = inhibition) at 10uM": 17.3},
      {"smiles": "COc1ccc(OC)c(NC(=S)Nc2ccccc2)c1", "hERG current change (%, negative = inhibition) at 10uM": 18.7},
      {"smiles": "O=C(COc1cccc(Oc2ccccc2)c1)Nc1ccc(SC(F)F)cc1", "hERG current change (%, negative = inhibition) at 10uM": 9.13},
      {"smiles": "CCN(CC(=O)Nc1cccc(S(=O)(=O)N(C)c2ccccc2)c1)Cc1ccccc1", "hERG current change (%, negative = inhibition) at 10uM": -21.7}
    ]}
  ]
}
